The source gives no read counts; variants with many changes may rest on few reads.
B1: LINE1-mini (parent)
chain: GGCAGAGCUCAACACAGCGUGGCAAAGUGGCUGUGGCUAGACUGCC

Variants of: B1
Assay: self-cleavage, relative activity (ratio to wild type); higher = more cleavage; in vitro, sequencing; the parent is a self-cleaving ribozyme
GGCAGAGAUCAACACAGCGUGGCAAAGCGGCUGUGGCUAGACAGCC [C8A U28C U43A] showed a self-cleavage of 0.19.
In the case of GGCAGAGAUCAACACAGCUUGGCAAAGUGGCUGUGGCUAGCCUUCC [C8A G19U A41C G44U], the self-cleavage is reported as 0.19.
Variant GGCAGAGGUCCACACAGCGUGGCAAAGUGGCUGUGGCUAGACGGCC [C8G A11C U43G] has a self-cleavage of 0.
GGCAGAGAUCAACACAGUGGGGCAAAGUGGCUGUGGCUAGACUUCC [C8A C18U U20G G44U] showed a self-cleavage of 0.08.
In the case of GGCAGAGGUCUACACAGCGUGGCAAAGUGGCUGUGUCUAGACUGCA [C8G A11U G36U C46A], the self-cleavage is reported as 0.01.
Variant GGCAGAGAUCAACACAGCGGGGCAAAGUGGCUGUAGCUAGACUGCC [C8A U20G G35A] has a self-cleavage of 0.44.
With GGCAGAGAUCAACACAGCGUGUCAAUGUGGCUGUGGCUAGACUACC [C8A G22U A26U G44A] the self-cleavage was 0.26.
In the case of GGCAGAGAUCAACACAGCUUGGCAAAGUGGCUGUGGCUAGGCUGCC [C8A G19U A41G], the self-cleavage is reported as 0.19.
Work on GGCAGAGAUCAACACAGCGUGGCAAAGUUGCUGUGGCUAGUCUGCC [C8A G29U A41U] yielded a self-cleavage of 0.2.
Work on GGCAGAGAUCAACACAGCGUGGCAAAGUGGCUGUGACUAGACUCCC [C8A G36A G44C] yielded a self-cleavage of 0.11.
Work on GGCAGAGAUCAACACAGCGUGGCAAAGUGGCUGUGGCUAUAAUGCC [C8A G40U C42A] yielded a self-cleavage of 0.39.
GGCAGAGAUCAACACAGCGUGGAAAAGUGGCUGUGGCUAGUCUGCC [C8A C23A A41U] gave a self-cleavage of 0.57.
For GGCAGAGAUCAACACAGCGUGUCAAAGGGGCCGUGGCUAGUCUGCC [C8A G22U U28G U32C A41U], the self-cleavage was 0.07.
For GGCAGAGAUCAACACAGCGUGGCAAAGUGGCUGUUGCUAGACUACA [C8A G35U G44A C46A], the self-cleavage was 0.1.
In the case of GGCAGAGAUCAACACAGCGUGGCAAAGUGGCUCUGGGUAGACUGCC [C8A G33C C37G], the self-cleavage is reported as 0.28.
For GGCAGAGGUCAGCACAGCGUGGCAAAGAGGCCGUGGCUAGACUGCU [C8G A12G U28A U32C C46U], the self-cleavage was 0.02.
GGCAGAGACCAACACAGCGUGGCAAAAUGGCUGUGUCUAGACUGCC [C8A U9C G27A G36U] gave a self-cleavage of 0.04.
Work on GGCAGAGAUCAACACAGCGUGGCAAAAUGGCUGUGGCUAGGCUGAC [C8A G27A A41G C45A] yielded a self-cleavage of 0.17.
Work on GGCAGAGAUCAACACAGCGUGGCAAAGUGGCUUUGGCUAGACUGCA [C8A G33U C46A] yielded a self-cleavage of 0.28.
For GGCAGAGAUCAACACAGCGUUGCAAAGUGGUUGUGGCUGGACUGCC [C8A G21U C31U A39G], the self-cleavage was 0.02.
Variant GGCAGAGAUCAACACAGCGUGGCAAAGUGGCUGUGGCUAAGCUGCC [C8A G40A A41G] has a self-cleavage of 0.42.
With GGCAGAGAGCAAUACAGCGUGGCAAAGUGGCUGUGGCUAGACUGCC [C8A U9G C13U] the self-cleavage was 0.03.
In the case of GGCAGAGAUCAACACAUCGUGGCAACGUGGCUGUGGCUAGACUGCC [C8A G17U A26C], the self-cleavage is reported as 0.24.
Work on GGCAGAGAUCAACACAGCGUGGCAAAGUACCUGUGGCUAGACUGCC [C8A G29A G30C] yielded a self-cleavage of 0.17.
Variant GGCAGAGAUCAACACAGCGCGGCAAAGUGGCUGUGGCUAGACUGCA [C8A U20C C46A] has a self-cleavage of 0.11.
Work on GGCAGAGACCAACACAGCGUGGCAAAGCGGCUGUGGCCAGACUGCC [C8A U9C U28C U38C] yielded a self-cleavage of 0.07.
Variant GGCAGAGGUCGACACAGCGUGUCAAAGUGGCUGUAGCUAGACUGCC [C8G A11G G22U G35A] has a self-cleavage of 0.03.
GGCAGAGGUCCACACAGCGUGGCAAAGUGGCUUUGGGGGGACUGCU [C8G A11C G33U C37G U38G A39G C46U] gave a self-cleavage of 0.
For GGCAGAGAUCAACACAGCGUGGCAAAGGUGCUGUUGCUAGACUGCC [C8A U28G G29U G35U], the self-cleavage was 0.32.
Variant GGCAGAGAACACCACAGAGUGGCAAAGUGGCUGUGGCUAUACUGCC [C8A U9A A12C C18A G40U] has a self-cleavage of 0.02.
Work on GGCAGAGAUCAACACAGCGUGGCAAACUGGCUGUGGUUAGACCGCC [C8A G27C C37U U43C] yielded a self-cleavage of 0.05.
Variant GGCAGAGAUCAACACAGCGUGACAAAGUGGCUGUGGCUAAACGGCC [C8A G22A G40A U43G] has a self-cleavage of 0.17.
In the case of GGCAGAGAUCAACACAGCUUGGCAAAGUGACUCUGGCUAGACUGCC [C8A G19U G30A G33C], the self-cleavage is reported as 0.04.
With GGCAGAGAUCAACACAGCGUGGCAAAGUGGCUGUGGCUAGAAUGGC [C8A C42A C45G] the self-cleavage was 0.39.
GGCAGAGAUCAACACAUCGGGGCAAAGUGGCUGUGGCUAGUCUGCC [C8A G17U U20G A41U] showed a self-cleavage of 0.17.
GGCAGAGAUCAACACAACGUGGCAAAGUGGCUGUGUCUAGACUGCC [C8A G17A G36U] showed a self-cleavage of 0.24.
For GGCAGAGAUCAACACAGCGUGGCAAAGUGGCUGUGACUAGAUUGCC [C8A G36A C42U], the self-cleavage was 2.93.
In the case of GGCAGAGAUCAACACAGCGAGGCAAAGUGGCGGUGGCUAGUCUGCC [C8A U20A U32G A41U], the self-cleavage is reported as 0.07.
GGCAGAGAUCAACACAGCGUGGGAAGGUGGCUUUGGCUAUACUGCC [C8A C23G A26G G33U G40U] showed a self-cleavage of 0.32.
For GGCAGAGAUCAACACAGCAUGGCAAAGUGCCUGUAGUUAGACUGCC [C8A G19A G30C G35A C37U], the self-cleavage was 0.1.
With GGCAGAGAUCAACACAGCUUGGCAAAGUGGCUGUGGCUAGACGACA [C8A G19U U43G G44A C46A] the self-cleavage was 0.06.
GGCAGAGAUCAACACAGCGUGGCAAAGUGGCUGGGGCAAGACUGCC [C8A U34G U38A] showed a self-cleavage of 0.47.
GGCAGAGAUCAACACAGCGUGGCAAAGUGUCUGUGGCUAAACUGCC [C8A G30U G40A] showed a self-cleavage of 0.31.
With GGCAGAGAUCAACACAGCGUGGCAAAGUGUCUGUGGCUAGAUUGCC [C8A G30U C42U] the self-cleavage was 0.07.
In the case of GGCAGAGACCAACACAGCGUGGCAAAGUGGCUGUGGCUAGACAGCC [C8A U9C U43A], the self-cleavage is reported as 0.11.
GGCAGAGAUCAACACAGCGUGGCAAAGUGGCUGUGACUAGACUGCU [C8A G36A C46U] gave a self-cleavage of 1.35.
GGCAGAGAUCAACACAGCGUGGCAAAGUGGCUGUGGCUAGAAAGCC [C8A C42A U43A] showed a self-cleavage of 0.27.
Variant GGCAGAGAUCAACACAGCAUGCCAAAGUGGCUGUGGCUAGACUGCC [C8A G19A G22C] has a self-cleavage of 0.14.
For GGCAGAGAUCAACACAGCGUGGCAAAGUAGCAGUGGAUAGACUGCC [C8A G29A U32A C37A], the self-cleavage was 0.03.
With GGCAGAGAUCAACACAACGUGGCAAAGUGGGUGUGGCUAGACUGCC [C8A G17A C31G] the self-cleavage was 0.16.
GGCAGAGAUCAACACAGCGAGGCAAAGUGGCUGUGUCAAUACUGCC [C8A U20A G36U U38A G40U] showed a self-cleavage of 0.07.
In the case of GGCAGAGAUCAACACAGCGUGGCAAACUGGCUGUGGCUAGACUGCG [C8A G27C C46G], the self-cleavage is reported as 0.21.
In the case of GGCAGAGAACAACACAGCGUGGCAAAGUUGCUGUGGCUAGACUGCC [C8A U9A G29U], the self-cleavage is reported as 0.22.
Work on GGCAGAGAUCAACACAGCGUGGCAAAGUAGGUGUGGCUAGACUGCC [C8A G29A C31G] yielded a self-cleavage of 0.18.
In the case of GGCAGAGAACAACACAGCGUGGUAAAGUGGCUGUGGCUAGACUGCC [C8A U9A C23U], the self-cleavage is reported as 0.28.
With GGCAGAGAUCAACACAGCGUGGCAAAGUGGCUGCAGCUAGACUGCC [C8A U34C G35A] the self-cleavage was 0.02.

From the RNAGym collection of RNA variant scans (doi:10.7554/elife.90254)
